Test results reported in the supplement of paper PMC8728848.
The other results are listed elsewhere or left out.

Assays:
Assay in all cases: glycan array binding signal (z-score within array); higher = stronger binding
Conditions in all cases: glycan notation: IUPAC condensed, linker removed
Fuc(a1-2)Gal = biological target: Fuc(a1-2)Gal
Procedure, shortened: (§1)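 Glycan array binding is given as a within-array Z-score, which can be read as non-binding when negative. The arrays, 3228 of them, came from the Consortium for Functional Glycomics database and were retained only where the protein sequence was available. Z-scores were averaged across arrays of the same protein sequence at different concentrations or buffers and across linkers.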

Fuc(a1-2)Gal(b1-3)GalNAc = biological target: Fuc(a1-2)Gal(b1-3)GalNAc
Procedure, shortened: as §1

[1] = biological target: Fuc(a1-2)Gal(b1-3)GalNAc(a1-3)[Fuc(a1-2)]Gal(b1-4)Glc
Procedure, shortened: as §1

[2] = biological target: Fuc(a1-2)Gal(b1-3)GalNAc(a1-3)[Fuc(a1-2)]Gal(b1-4)GlcNAc
Procedure, shortened: as §1

[3] = biological target: Fuc(a1-2)Gal(b1-3)GalNAc(b1-3)Gal
Procedure, shortened: as §1

[4] = biological target: Fuc(a1-2)Gal(b1-3)GalNAc(b1-3)Gal(a1-4)Gal(b1-4)Glc
Procedure, shortened: as §1

[5] = biological target: Fuc(a1-2)Gal(b1-3)GalNAc(b1-4)[Neu5Ac(a2-3)]Gal(b1-4)Glc
Procedure, shortened: as §1

Fuc(a1-2)Gal(b1-3)GlcNAc = biological target: Fuc(a1-2)Gal(b1-3)GlcNAc
Procedure, shortened: as §1

[6] = biological target: Fuc(a1-2)Gal(b1-3)GlcNAc(b1-2)Man(a1-3)[Fuc(a1-2)Gal(b1-3)GlcNAc(b1-2)Man(a1-6)]Man(b1-4)GlcNAc(b1-4)GlcNAc
Procedure, shortened: as §1

[7] = biological target: Fuc(a1-2)Gal(b1-3)GlcNAc(b1-2)Man(a1-3)[Fuc(a1-2)Gal(b1-3)GlcNAc(b1-2)Man(a1-6)]Man(b1-4)GlcNAc(b1-4)[Fuc(a1-6)]GlcNAc
Procedure, shortened: as §1

[8] = biological target: Fuc(a1-2)Gal(b1-3)GlcNAc(b1-3)Gal(b1-4)Glc
Procedure, shortened: as §1

[9] = biological target: Fuc(a1-2)Gal(b1-3)GlcNAc(b1-3)GalNAc
Procedure, shortened: as §1

[10] = biological target: Fuc(a1-2)Gal(b1-3)GlcNAc(b1-3)[Fuc(a1-2)Gal(b1-3)GlcNAc(b1-6)]GalNAc
Procedure, shortened: as §1

[11] = biological target: Fuc(a1-2)Gal(b1-3)GlcNAc(b1-3)[Gal(b1-4)GlcNAc(b1-6)]Gal(b1-4)Glc
Procedure, shortened: as §1

[12] = biological target: Fuc(a1-2)Gal(b1-3)GlcNAc(b1-3)[Neu5Ac(a2-6)Gal(b1-4)GlcNAc(b1-6)]Gal(b1-4)Glc
Procedure, shortened: as §1

[13] = biological target: Fuc(a1-2)Gal(b1-3)GlcNAc6S
Procedure, shortened: as §1

[14] = biological target: Fuc(a1-2)Gal(b1-3)[Fuc(a1-4)]GlcNAc
Procedure, shortened: as §1

[15] = biological target: Fuc(a1-2)Gal(b1-3)[Fuc(a1-4)]GlcNAc(b1-2)Man(a1-3)[Fuc(a1-2)Gal(b1-3)[Fuc(a1-4)]GlcNAc(b1-2)Man(a1-3)]Man(b1-4)GlcNAc(b1-4)GlcNAc
Procedure, shortened: as §1

[16] = biological target: Fuc(a1-2)Gal(b1-3)[Fuc(a1-4)]GlcNAc(b1-2)Man(a1-3)[Fuc(a1-2)Gal(b1-3)[Fuc(a1-4)]GlcNAc(b1-2)Man(a1-6)]Man(b1-4)GlcNAc(b1-4)[Fuc(a1-6)]GlcNAc(b1-4)[Fuc(a1-6)]GlcNAc
Procedure, shortened: as §1

[17] = biological target: Fuc(a1-2)Gal(b1-3)[Fuc(a1-4)]GlcNAc(b1-3)[Fuc(a1-3)[Gal(b1-4)]GlcNAc(b1-6)]Gal(b1-4)Glc
Procedure, shortened: as §1

[18] = biological target: Fuc(a1-2)Gal(b1-3)[Fuc(a1-4)]GlcNAc(b1-3)[Gal(b1-4)GlcNAc(b1-6)]Gal(b1-4)Glc
Procedure, shortened: as §1

[19] = biological target: Fuc(a1-2)Gal(b1-4)Fuc(a1-3)]GlcNAc(b1-2)Man(a1-3)[Fuc(a1-2)Gal(b1-4)[Fuc(a1-3)]GlcNAc(b1-2)Man(a1-6)]Man(b1-4)GlcNAc(b1-4)GlcNAc
Procedure, shortened: as §1

Fuc(a1-2)Gal(b1-4)Glc = biological target: Fuc(a1-2)Gal(b1-4)Glc
Procedure, shortened: as §1

Fuc(a1-2)Gal(b1-4)Glc6S = biological target: Fuc(a1-2)Gal(b1-4)Glc6S
Procedure, shortened: as §1

Fuc(a1-2)Gal(b1-4)GlcNAc = biological target: Fuc(a1-2)Gal(b1-4)GlcNAc
Procedure, shortened: as §1

[20] = biological target: Fuc(a1-2)Gal(b1-4)GlcNAc(b1-2)Man
Procedure, shortened: as §1

[21] = biological target: Fuc(a1-2)Gal(b1-4)GlcNAc(b1-2)Man(a1-3)[Fuc(a1-2)Gal(b1-4)GlcNAc(b1-2)Man(a1-6)]Man(b1-4)GlcNAc(b1-4)GlcNAc
Procedure, shortened: as §1

[22] = biological target: Fuc(a1-2)Gal(b1-4)GlcNAc(b1-2)Man(a1-3)[Fuc(a1-2)Gal(b1-4)GlcNAc(b1-2)Man(a1-6)]Man(b1-4)GlcNAc(b1-4)[Fuc(a1-6)]GlcNAc
Procedure, shortened: as §1

[23] = biological target: Fuc(a1-2)Gal(b1-4)GlcNAc(b1-2)[Fuc(a1-2)Gal(b1-4)GlcNAc(b1-4)]Man(a1-3)[Fuc(a1-2)Gal(b1-4)GlcNAc(b1-2)Man(a1-6)]Man(b1-4)GlcNAc(b1-4)GlcNAc
Procedure, shortened: as §1

[24] = biological target: Fuc(a1-2)Gal(b1-4)GlcNAc(b1-3)Gal(b1-4)GlcNAc
Procedure, shortened: as §1

B1: ECL (Erythrina cristagalli), Q6YD91 (protein)
chain: VETISFSFSEFEPGNNDLTLQGAAIITQSGVLQLTKINQNGMPAWDSTGRTLYTKPVHIWDMTTGTVASFETRFSFSIEQPYTRPLPADGLVFFMGPTKSKPAQGYGYLGVFNNSKQDNSYQTLAVEFDTFSNPWDPPQVPHIGIDVNSIRSIKTQPFQLDNGQVANVVIKYDASSKILLAVLVYPSSGAIYTIAEIVDVKQVLPEWVDVGLSGATGAQRDAAETHDVYSWSFHASLPETND
glycan array binding signal (z-score) (Fuc(a1-2)Gal): -0.188 | glycan array binding signal (z-score) (Fuc(a1-2)Gal(b1-3)GalNAc): -0.29 | glycan array binding signal (z-score) [1]: -0.092 | glycan array binding signal (z-score) [2]: -0.443 | glycan array binding signal (z-score) [3]: -0.245 | glycan array binding signal (z-score) [4]: -0.245 | glycan array binding signal (z-score) [5]: -0.287 | glycan array binding signal (z-score) (Fuc(a1-2)Gal(b1-3)GlcNAc): -0.112 | glycan array binding signal (z-score) [6]: 0.03 | glycan array binding signal (z-score) [7]: -0.206 | glycan array binding signal (z-score) [8]: -0.22 | glycan array binding signal (z-score) [9]: -0.346 | glycan array binding signal (z-score) [10]: -0.198 | glycan array binding signal (z-score) [11]: -0.197 | glycan array binding signal (z-score) [12]: -0.241 | glycan array binding signal (z-score) [13]: -0.1 | glycan array binding signal (z-score) [14]: -0.305 | glycan array binding signal (z-score) [15]: 0.051 | glycan array binding signal (z-score) [16]: -0.246 | glycan array binding signal (z-score) [17]: -0.439 | glycan array binding signal (z-score) [18]: -0.094 | glycan array binding signal (z-score) [19]: -0.239 | glycan array binding signal (z-score) (Fuc(a1-2)Gal(b1-4)Glc): -0.177 | glycan array binding signal (z-score) (Fuc(a1-2)Gal(b1-4)Glc6S): -0.104 | glycan array binding signal (z-score) (Fuc(a1-2)Gal(b1-4)GlcNAc): 0.042 | glycan array binding signal (z-score) [20]: -0.288 | glycan array binding signal (z-score) [21]: 0.819 | glycan array binding signal (z-score) [22]: -0.031 | glycan array binding signal (z-score) [23]: 0.249 | glycan array binding signal (z-score) [24]: 0.293
